The whole screen tested about 310,000 compounds, of which about 14,000 (4.5%) showed an effect of 50% or more. Effects have a minus sign here. This is one part of the list.
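Also: peak tail current of the secondary pulse compared with the same well before compound.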

This assay deals with human ether-à-go-go-related gene (hERG) potassium channel (human, UniProt Q12809). In words: primary screen, population patch clamp on CHO cells stably expressing hERG.
Sequence of human ether-à-go-go-related gene (hERG) potassium channel (Q12809 whole entry, looked up): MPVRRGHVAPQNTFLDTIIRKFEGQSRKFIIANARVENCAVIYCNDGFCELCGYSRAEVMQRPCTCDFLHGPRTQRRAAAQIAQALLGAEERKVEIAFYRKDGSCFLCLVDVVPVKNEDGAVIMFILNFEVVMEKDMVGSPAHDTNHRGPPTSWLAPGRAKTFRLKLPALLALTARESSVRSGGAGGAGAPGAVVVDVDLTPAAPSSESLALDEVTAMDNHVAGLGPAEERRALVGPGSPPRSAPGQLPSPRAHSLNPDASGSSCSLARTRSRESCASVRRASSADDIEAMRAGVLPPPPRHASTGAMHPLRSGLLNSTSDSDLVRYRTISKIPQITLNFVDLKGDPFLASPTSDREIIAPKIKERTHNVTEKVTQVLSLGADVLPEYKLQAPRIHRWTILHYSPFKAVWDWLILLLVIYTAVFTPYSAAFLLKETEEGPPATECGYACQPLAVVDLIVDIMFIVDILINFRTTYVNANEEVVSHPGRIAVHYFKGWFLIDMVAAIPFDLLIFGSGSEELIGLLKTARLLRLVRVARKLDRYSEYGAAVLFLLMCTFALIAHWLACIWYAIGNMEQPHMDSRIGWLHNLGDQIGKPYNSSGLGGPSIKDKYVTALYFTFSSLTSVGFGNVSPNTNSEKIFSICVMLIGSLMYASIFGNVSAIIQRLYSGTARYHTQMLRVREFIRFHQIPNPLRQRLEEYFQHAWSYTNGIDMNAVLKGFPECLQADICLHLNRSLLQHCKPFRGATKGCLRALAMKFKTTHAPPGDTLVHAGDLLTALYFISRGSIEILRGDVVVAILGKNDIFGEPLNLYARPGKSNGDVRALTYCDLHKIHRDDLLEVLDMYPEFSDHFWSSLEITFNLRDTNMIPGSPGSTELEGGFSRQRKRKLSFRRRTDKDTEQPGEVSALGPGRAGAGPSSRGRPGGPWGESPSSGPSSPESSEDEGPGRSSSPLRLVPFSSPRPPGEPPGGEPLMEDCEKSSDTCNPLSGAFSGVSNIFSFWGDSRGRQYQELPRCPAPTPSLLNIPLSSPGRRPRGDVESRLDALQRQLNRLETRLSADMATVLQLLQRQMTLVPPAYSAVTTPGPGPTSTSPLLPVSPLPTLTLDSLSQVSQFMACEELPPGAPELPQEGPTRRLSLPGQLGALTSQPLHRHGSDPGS
On to `CN(C)CCCC(C)(O)C(C)(C)c1ccccc1.Cl` (stereo not shown), for which the “hERG current change (%, negative = inhibition) at 10uM” value is on record as -3.15%. Turning to `O=c1cc(CSc2ccc(Cl)cc2)nc(N2CCCCC2)[nH]1`, the “hERG current change (%, negative = inhibition) at 10uM” value was found to be 8.16%. As for `CN1CCc2nc(SC(C(=O)O)c3ccccc3)c(C#N)c(-c3cccs3)c2C1` (stereo not shown), the figure is 19.4%. Take `CCCCN(C(=O)C1CSC2(C)CCC(=O)N12)c1c(N)n(CC(C)C)c(=O)[nH]c1=O` (stereo not shown): the “hERG current change (%, negative = inhibition) at 10uM” value was 11%. The same measure for `COc1ccc2oc(C(=O)OCC(=O)Nc3ccc(OC)c(S(N)(=O)=O)c3)c(C)c2c1`: -4.61%; for `COc1ccc(/C=C/C(=O)c2ccccc2)cc1Cn1nnc2ccccc21`: 14.1%; for `CCOC(=O)[C@@H]1[C@H]2COc3ccccc3[C@@H]2N2C(=O)N(c3ccc(C)cc3)C(=O)[C@]12C`: -1.58%. For `CCCCC1=CC2=CC(=O)C(C)(OC(=O)CC)C(=O)C2=CN1CC(C)C` (stereo not shown), the “hERG current change (%, negative = inhibition) at 10uM” value amounted to 2.23%. As for `CCOC(=O)C1=C(SCC(=O)Nc2ccccc2)NC(=O)C(C#N)C12CCCCC2` (stereo not shown), the figure is -5.43%. In the case of `COC(=O)C(NC(=O)C(C)NC(=O)OCc1ccccc1)C(C)C` (stereo not shown), the “hERG current change (%, negative = inhibition) at 10uM” value was 20.3%. Take `O=[N+]([O-])c1cc(S(=O)(=O)Nc2ccccc2)ccc1N1CCN(c2ccccc2)CC1`: the “hERG current change (%, negative = inhibition) at 10uM” value is listed as -3.6%. Regarding `O=C(c1ccc(Cl)cc1)N(Cc1cccs1)C1CCS(=O)(=O)C1` (stereo not shown), the “hERG current change (%, negative = inhibition) at 10uM” value is listed as -24.4%. Turning to `Br.CCOC(=O)C(CC)(CCC(=O)OC)c1csc(Nc2ccccc2O)n1` (stereo not shown), the “hERG current change (%, negative = inhibition) at 10uM” value amounted to 4.16%. In the case of `C=CCn1c(SCc2ccc(C(=O)OC)cc2)nnc1-c1sc(N)nc1C`, the “hERG current change (%, negative = inhibition) at 10uM” value is given as -8.5%. With `O=C(NCC1CCCO1)C(=Cc1cccc([N+](=O)[O-])c1)C(=O)NCC1CCCO1` (stereo not shown), the “hERG current change (%, negative = inhibition) at 10uM” value is recorded as -12.2%. With `CCn1cc(CNC(=O)c2ccc3nc(Cc4ccccc4F)oc3c2)cn1`, the “hERG current change (%, negative = inhibition) at 10uM” value is 11.2%. For `CCOC(=O)c1c(C)[nH]c(C(=O)N/N=C\c2ccccc2O)c1C`, the “hERG current change (%, negative = inhibition) at 10uM” value was -2.88%.

Regarding `CNC(=O)COC(=O)CCC(=O)c1cccs1`, the “hERG current change (%, negative = inhibition) at 10uM” value was -19.5%. On to `Cc1ccc(Cl)cc1N1CCN(S(=O)(=O)c2c(C)noc2C)CC1`, for which the “hERG current change (%, negative = inhibition) at 10uM” value is recorded as -2.62%. `COc1cc(-c2nn3c(-c4cccc(C)c4)nnc3s2)cc(OC)c1OC`: the “hERG current change (%, negative = inhibition) at 10uM” value was 13.1%.

For `Cn1nc(C(=O)Nc2cccc(S(=O)(=O)N3CCCC3)c2)c2ccccc2c1=O`, the “hERG current change (%, negative = inhibition) at 10uM” value is recorded as -4.87%. For `COc1ccccc1CC(=O)NNS(=O)(=O)c1ccccc1[N+](=O)[O-]`, the “hERG current change (%, negative = inhibition) at 10uM” value is 14.2%. With `CC(=O)c1ccc(NC(=O)C2(c3ccccc3)CC2(Cl)Cl)cc1` (stereo not shown), the “hERG current change (%, negative = inhibition) at 10uM” value is listed as -5.48%. Turning to `Cc1nn(-c2ccccc2)c(N2CCCC2)c1/C=N/NC(=O)C1CC1`, the “hERG current change (%, negative = inhibition) at 10uM” value was -3.43%.

For the molecule `O=C(NCc1ccc(F)cc1)c1c(O)c2cccc3c2n(c1=O)CCC3`, the “hERG current change (%, negative = inhibition) at 10uM” value was determined as 10%. As for `O=P(O)(O)O.Oc1ccc(Br)cc1/C=N/N1CCCCC1`, the “hERG current change (%, negative = inhibition) at 10uM” value is reported as -3.08%. The same measure for `O=C(COC(=O)c1cc[n+]([O-])cc1)Nc1ccc([N+](=O)[O-])cc1Cl`: -2.91%; for `CN(C)C(=O)COC(=O)/C=C/c1cn(-c2ccccc2)nc1-c1cccs1`: -9.03%; for `Cc1ccc(C)c(Cn2nnc3c(=O)[nH]c(C(=O)NCC4CCCO4)nc32)c1` (stereo not shown): -9.9%. Regarding `Cc1ccc(NC(=O)c2ncc(Cl)c(Cl)c2Cl)cc1C`, the “hERG current change (%, negative = inhibition) at 10uM” value is 10.1%. For the molecule `CCCCCn1c(=O)[nH]c2cc(C(=O)NCCCN3CCCCC3C)ccc2c1=O` (stereo not shown), the “hERG current change (%, negative = inhibition) at 10uM” value is recorded as -37.7%. As to `CCOC(=O)/C(C#N)=C1/C=Cc2ccccc2N1CC`, the “hERG current change (%, negative = inhibition) at 10uM” value is -9.05%. Regarding `COc1cccc(CNCc2ccc(OC)cc2OC)c1.O=C(O)C(=O)O`, the “hERG current change (%, negative = inhibition) at 10uM” value is listed as -14.1%. Regarding `Cc1ccc(SCc2cn3ccccc3n2)cc1`, the “hERG current change (%, negative = inhibition) at 10uM” value is -7.57%. Consider `CC1(C)CC(=O)C(C(=O)/C=C/NCCc2ccccc2)C(=O)C1`, for which the “hERG current change (%, negative = inhibition) at 10uM” value is 1.14%. As for `CCNC(=S)Nc1ccc(C)c(S(=O)(=O)Nc2ccccc2OC)c1`, the figure is -12.7%. `O=[N+]([O-])c1cc2c(cc1/C=N/Nc1nc(Nc3ccccc3)nc(N3CCCCC3)n1)OCO2`: the “hERG current change (%, negative = inhibition) at 10uM” value is 3.5%. For the molecule `O=C(OCC(=O)N1CCc2ccccc2C1)c1cccs1`, the “hERG current change (%, negative = inhibition) at 10uM” value is 33.2%.

As for `COCC(=O)Nc1cccc(C(F)(F)F)c1`, the “hERG current change (%, negative = inhibition) at 10uM” value is on record as -3.13%. Turning to `COc1cc2c(cc1OC)CN(S(C)(=O)=O)CC2`, the “hERG current change (%, negative = inhibition) at 10uM” value worked out at 10.1%.

Turning to `COc1ccccc1C(=O)n1nc(-c2ccco2)nc1N`, the “hERG current change (%, negative = inhibition) at 10uM” value came out at 9.08%.

Turning to `O=C1c2oc3ccc(F)cc3c(=O)c2C(c2ccccc2)N1CC1CCCO1` (stereo not shown), the “hERG current change (%, negative = inhibition) at 10uM” value was -12.4%.

For the molecule `COc1ccc(N2C(=S)N=C(Nc3ccccc3)C23CCCCC3)cc1`, the “hERG current change (%, negative = inhibition) at 10uM” value is 16.3%.

Take `COc1ccc(Cn2nnnc2C(c2ccc(N(C)C)cc2)N2CCC(C(N)=O)CC2)cc1` (stereo not shown): the “hERG current change (%, negative = inhibition) at 10uM” value is -25.3%.

Regarding `COc1ccc(N(Cc2cc(=O)[nH]c3ccccc23)C(C)=O)cc1`, the “hERG current change (%, negative = inhibition) at 10uM” value is recorded as 1.79%. Turning to `COc1cc(OC)cc(C(=O)NNC(=O)c2cc(S(=O)(=O)N3CCOCC3)ccc2F)c1`, the “hERG current change (%, negative = inhibition) at 10uM” value was -1.89%. As for `COc1ccc(OC)c(S(=O)(=O)NCc2nc3nc(C)cc(C)n3n2)c1`, the figure is 19.5%; as for `Cc1ccc(/C=N/n2c(C3CCCCC3)n[nH]c2=S)cc1`, 29.9%. As to `CC1=C(C(=O)Nc2ccccc2Cl)C(c2ccc(N(C)C)cc2)NC(=O)N1` (stereo not shown), the “hERG current change (%, negative = inhibition) at 10uM” value is on record as 12.4%. Consider `CNC(=O)c1[nH]cnc1C(=O)Nc1ccccc1OC`, for which the “hERG current change (%, negative = inhibition) at 10uM” value was 1.81%. Regarding `CC1=Nc2cccc3cccc(c23)N1C`, the “hERG current change (%, negative = inhibition) at 10uM” value is recorded as -15.1%.

On to `CCCOc1ccc(C(=O)OCC(=O)NCCc2ccc(OCC)c(OCC)c2)cc1OC`, for which the “hERG current change (%, negative = inhibition) at 10uM” value is 6.62%. Turning to `CCCN[C@H]1CCc2nc(N)sc2C1.Cl`, the “hERG current change (%, negative = inhibition) at 10uM” value is given as 20.3%.

For the molecule `CCCCNS(=O)(=O)c1ccc2nc(SCC(=O)c3ccc(C#N)cc3)[nH]c2c1`, the “hERG current change (%, negative = inhibition) at 10uM” value was -11.7%.

For the molecule `Nc1c(/C=C2/C=CC(=O)C(O)=C2)c(=O)nc2sc(CC(=O)N3CCCC3)nn12`, the “hERG current change (%, negative = inhibition) at 10uM” value turned out to be 13.9%.

For the origin of these results see publication PMC4336329 (PLoS ONE, 2015).
